Reference: PubChem BioAssay AID686979 (National Center for Advancing Translational Sciences (NCATS), 2013)
About 50,000 (12%) of roughly 420,000 compounds were called active. Inconclusive results, whose numbers are uncertain, are shown with a selection of clear calls. Calls come from the whole dose curve; as a rule, active = well fitted inhibition curve with a large enough effect; inconclusive = small, poorly fitted or top-dose-only effect; inactive = flat fitted curve, though single readings scatter. Potencies of inconclusive entries are left out as doubtful fits.

assay: qHTS for Inhibitors of human tyrosyl-DNA phosphodiesterase 1 (TDP1): qHTS in cells in presence of CPT; conditions: chicken DT40 Tdp1-/-;hTDP1 cells + 20 nM CPT, ATP luminescence, 48 h; series mostly up to 46.2 µM; note: nearly all actives have a fitted effect of over 55% in size
Method in brief: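 Cell growth measured by CellTiter-Glo luminescence after a minimum 48 h, 37 C compound exposure with 20 nM CPT in Tdp1-knockout DT40 cells stably expressing hTDP1, seeded 400/well; qHTS titration format.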
Potency is the fitted concentration of half-maximal effect; tags give direction and shape of the fitted curve.

Compound | Potency
Cc1ccc(C(C)C)cc1OCC(=O)NCCCn1ccnc1 | inconclusive [inhibitor, single point]
Cc1ccc(OCc2nc3ccccc3[nH]2)cc1 | inconclusive [inhibitor, full curve, poor fit]
O=c1[nH]c2ccccc2c2ccc(Cl)cc12 | inconclusive [inhibitor, single point]
CC(C)Cc1nc2ccccc2n1CCc1ccccc1 | active: 23.1 µM
CCCc1ccc(Oc2cc(Cl)nc(N)n2)cc1 | inconclusive [inhibitor, single point]
CN1CCN(Cc2nc3ccccc3c(=O)n2Cc2nc(-c3ccccc3F)cs2)CC1 | active: 16.4 µM
Cc1ccc(OC(=O)c2ccc(S(=O)(=O)N(C)C)cc2)c(-n2nc3ccccc3n2)c1 | inactive
FC(F)(F)c1cc(Oc2ccccc2)ncc1-c1nnc(-c2ccccc2Cl)o1 | inactive
CCn1c(-c2ccccc2Cl)nn(CC(=O)Nc2cc(Cl)ccc2Cl)c1=S | inactive
CCCCNC(=O)NCc1cnn(C)c1C | inactive
CCCCn1c(N)c(N(CCOC)C(=O)c2c(CC)noc2C)c(=O)[nH]c1=O | inactive
Cc1cc(OCCCC(=O)Nc2cc(S(=O)(=O)N3CCOCC3)ccc2N2CCOCC2)ccc1Cl | inconclusive [inhibitor, single point]
CCOC(=O)C1=C(C)NC(=O)NC1C (stereo not drawn) | inactive
Cc1cnc(C(=O)N2CCCC(C(=O)c3ccc(Cl)cc3C)C2)cn1 (stereo not drawn) | inconclusive [inhibitor, single point]
Cc1ccnc(NC(c2ccccc2)c2ccc3cccnc3c2O)c1 (stereo not drawn) | inconclusive [inhibitor, single point]
CC(CCc1ccccc1)NC(=O)CN1CCc2ccccc2C1 (stereo not drawn) | inconclusive [inhibitor, single point]
CCCc1c(-c2cccc(Cl)c2)ncn1Cc1cccc(-c2ccccc2)c1 | active: 20.6 µM
COc1ccc(CCNC(=O)C2CC3Cn4c(nc5ccccc54)C3N2c2ccccc2)cc1 (stereo not drawn) | inconclusive [inhibitor, full curve, poor fit]
O=C(CCC(=O)Nc1ccc(Cl)cc1Cl)N/N=C/c1ccc([N+](=O)[O-])o1 | active: 2.59 µM
CCC(C)NC(=O)c1cc2c(Cl)nc3ccc(C)cc3c2s1 (stereo not drawn) | inactive
COc1ccc(C(C)(C)C)cc1NC(=O)CCN1C(=O)NC(C)(C)C1=O | inactive
C#CCn1c(=NC(=O)c2ccc(Br)s2)sc2cc(NC(C)=O)ccc21 | inactive
CN(CCC#N)C(=O)CSc1nnc(-c2c[nH]c3ccccc23)o1 | inactive
CC(=O)Nc1ccc(/C=N/NC(=O)CC2CCCCC2)cc1 | inconclusive [inhibitor, full curve]
Cc1cccc(-n2nnc3c(=O)n(CC(=O)Nc4cc(C)on4)cnc32)c1 | inactive
CCc1nc(SCC(=O)NCCc2ccccc2)n[nH]1 | inactive

Compound | Potency
CC(OC(=O)C1CCN(c2ccc(C(F)(F)F)cn2)CC1)C(=O)NC1CCCCC1C (stereo not drawn) | inconclusive [inhibitor, single point]
CC1CCCC(NC(=O)c2ccc3c(c2)N(Cc2ccccc2)C(=O)CS3=O)C1C (stereo not drawn) | inconclusive [inhibitor, single point]
CCC(CO)[n+]1c(C)cc(/C=C2\Sc3ccccc3N2Cc2ccccc2)cc1C (stereo not drawn) | active: 2.31 µM
Cc1cc(C(=O)NCC2CCC3(CCN(Cc4ccc5ccccc5c4)CC3)O2)n(C)n1 (stereo not drawn) | active: 20.6 µM
CN(c1ccccc1)S(=O)(=O)c1ccc(NC(=S)NC(=O)c2ccccc2)cc1 | inconclusive [inhibitor, single point]
Cn1cc(CCC(=O)NCc2cccc(Cl)c2)c2ccccc21 | inactive
Cc1ccccc1NC(=O)C1CCCN(c2nnc(N3CCCC3=O)s2)C1 (stereo not drawn) | inactive
O=C(O)c1cccc(Nc2ncnc3sccc23)c1 | inactive
CN(C)c1ccc(C=O)c(O)c1 | inactive
COc1ccc(-c2nn3c(-c4ccc(OC)cc4)nnc3c3ccccc23)cc1 | inactive
CCOC(=O)c1c(C)[nH]c(C(=O)OCC(=O)NCCc2ccc(OCC)c(OCC)c2)c1C | active: 6.51 µM
COc1ccc([C@H]2CC(=O)C=C(c3ccc4cc[nH]c4c3)C2)cc1 | active: 25.9 µM
Cc1ccc(-c2nn(-c3ccccc3)cc2C(N)=O)o1 | inactive
COCOCCn1cc(CN2CCS(=O)(=O)N(Cc3ccc(-c4cccc(N(C)C)c4)cc3)C(CC(C)C)C2=O)nn1 (stereo not drawn) | inconclusive [inhibitor, single point]
CCC(Cc1ccccc1)NC(=O)c1ccc2nc(N3CCC(C)CC3)sc2c1 (stereo not drawn) | active: 20.6 µM
O=C(Nc1cn(-c2ccccc2)nc1-c1ccc(Cl)cc1)c1ccccc1 | inconclusive [inhibitor, single point]
CC1=C(OC(=O)c2ccccc2)C(C)(C)C(c2ccc(Br)cc2)OC1=O (stereo not drawn) | inconclusive [inhibitor, single point]
COc1cc2c(cc1Cl)/C(=C\CCN(C)C)c1ccccc1S2 | active: 18.4 µM
Cn1c(Oc2ccc3c(c2)OCO3)nc2c1c(=O)n(Cc1ccccc1)c(=O)n2C | inconclusive [inhibitor, single point]
Cc1ccc2nc(-c3ccccc3)cc(C(=O)NCCCn3ccnc3)c2c1 | inactive
CS(=O)(=O)Nc1cccc(C2=NN(C(=O)c3ccc(F)cc3)C(c3cccs3)C2)c1 (stereo not drawn) | inconclusive [inhibitor, single point]
CCC1(c2ccccc2)NC(=O)N(CC(=O)Nc2ccccc2C(=O)N2CCCCC2)C1=O (stereo not drawn) | inactive
CN1CCN(c2ncnc3c2ncn3[C@H]2CN(Cc3ccc4c(c3)OCO4)C[C@@H](CO)O2)CC1 | inactive
Cc1ccc(OCc2nc3ccccc3n2C(C(=O)Nc2c(C)cccc2C)C2CC2)cc1 (stereo not drawn) | inconclusive [inhibitor, single point]
COc1ccc(OC(=O)c2nc(SCc3ccc(C)cc3)ncc2Cl)cc1 | inconclusive [inhibitor, single point]
CCCCN(CCCC)Cc1cc(=O)oc2cc(OC)c(Cl)cc12 | inconclusive [inhibitor, single point]

Compound | Potency
O=C1c2ccccc2C(=O)N1c1ncc(Cc2ccc(Cl)cc2)s1 | active: 18.4 µM
O=C(NCCc1ccccc1)c1nc(CS(=O)(=O)c2ccc(Cl)cc2)no1 | inconclusive [inhibitor, single point]
Cc1cccc(C)c1OCC(=O)NCC1(N2CCOCC2)CCCCC1 | active: 16.4 µM
CCOC(=O)c1ccc(-n2c(N)c(C(=O)OC)c3nc4ccccc4nc32)cc1 | active: 5.8 µM
COc1ccc(Cl)cc1NC(=O)CN1C(=O)NC(C)(Cc2ccc(OC)c(OC)c2)C1=O (stereo not drawn) | inactive
O=C(O)Cc1sc(=O)[nH]c1O | inactive
Cc1ccc(N2C(S)=C(C#N)C(=O)NC2c2cccs2)cc1 (stereo not drawn) | active: 14.6 µM
CC(C)(C)C1CCC(=NNC(=S)NCc2ccccc2)CC1 (stereo not drawn) | inconclusive [inhibitor, single point]
COc1cc2c(cc1OC)-c1cc(NCc3ccccn3)nc(=O)n1CC2 | inactive
CC1=Nc2ccccc2N=C(NC(=O)CSc2nnnn2-c2ccccc2)C1c1ccccc1 (stereo not drawn) | inconclusive [inhibitor, single point]
O=C1Cc2cc(S(=O)(=O)N3CCNCC3)ccc2N1 | inactive
O=C(CN1C(=O)COc2ccc(S(=O)(=O)N3CCCCC3)cc21)NCc1ccc(F)cc1 | inconclusive [inhibitor, partial curve]
O=C(O)c1sccc1S(=O)(=O)N1CCCCC1 | inactive
COc1ccc2[nH]cc(CCNc3nc(-c4ccoc4)nc4ccccc34)c2c1 | inconclusive [inhibitor, single point]
COc1cc(C(F)(F)F)c(C(=O)N(C)Cc2cc(Cl)cc(Cl)c2)cn1 | inconclusive [inhibitor, single point]
CC(=O)Nc1cccc(-c2ccnc3c2CC(C)(C(=O)NCc2cccc(Cl)c2)O3)c1 (stereo not drawn) | active: 3.66 µM
CCCCn1c(SCC(=O)c2ccc(O)c(O)c2)nc2ccsc2c1=O | active: 14.6 µM
Cc1ccccc1OCC(O)Cn1c(Br)nc2c1c(=O)[nH]c(=O)n2C (stereo not drawn) | active: 13 µM
O=C(COC(=O)Cc1c(Cl)cccc1Cl)Nc1ccccc1-c1ccccc1 | inconclusive [inhibitor, single point]
CCCc1noc2c1/C(=N\O)CC(CC(C)SCC)C2 (stereo not drawn) | inconclusive [inhibitor, partial curve, poor fit]
O=C(Cn1nc(Cc2cccnc2)c2ccccc2c1=O)N1CCN(c2ccccn2)CC1 | inactive
O=C(Nc1ccccc1)c1cc(S(=O)(=O)N2CCSCC2)ccc1Cl | inconclusive [inhibitor, partial curve]
N#Cc1cc(Oc2ccc3ccccc3c2)c(-n2nnc3ccccc32)cc1C#N | inconclusive [inhibitor, single point]
CCc1cccc(NC(=O)c2cc(S(=O)(=O)N3CCCCC3)ccc2N2CCOCC2)c1 | active: 20.6 µM
Cc1cccc(NCC(=O)N/N=C\c2cccc(Oc3ccccc3)c2)c1 | inconclusive [inhibitor, single point]
c1ccc(COc2ncnc3c2ncn3CCCN2CCN(c3ncccn3)CC2)cc1 | inconclusive [inhibitor, single point]
